Results from PubChem BioAssay AID624296 (National Center for Advancing Translational Sciences (NCATS), 2012).
Several values for one entry are separate records, joined by “and”; a condition that tells them apart may be missing. Identical values can stand only once. Screen size: about 350,000 compounds; about 9,900 (2.8%) were called active. Inconclusive results, whose numbers are uncertain, are shown with a selection of clear calls. Calls follow the shape of the dose curve; as a rule, active = well fitted activation curve with a large enough effect; inconclusive = small, poorly fitted or top-dose-only effect; inactive = no such curve, though single readings can be large or run the other way. Where the call is inconclusive, the potency comes from a doubtful curve fit.

experiment: A quantitative high throughput screen for small molecules that induce DNA re-replication in MCF 10a normal breast cells.; also: nearly all actives have a fitted effect of over 50% in size; as to activity, positive = re-replication: % of control where 0% means no effect; details: MCF 10A DNA re-replication, Hoechst nuclear intensity, 48 h; activity, positive = re-replication: at 46.1 µM (top of the series)
Potency is read from the fitted curve at half-maximal effect; tags tell the direction and shape of the fitted curve.

| SMILES | activity, positive = re-replication | Potency |
| --- | --- | --- |
| O=C(NCC1CCCO1)c1ccc2c(c1)S(=O)(=O)c1ccccc1C2=O (stereo not drawn) | inactive: 2.16% | – |
| CCCCC(=O)Nc1c(O)c2ccccc2[nH]c1=O | inactive: 10.3% | – |
| CC1CC1c1ccc(/C=C(\C#N)C(=O)Nc2ccccc2Cl)o1 (stereo not drawn) | – | active: 16.4 µM |
| CC(=O)Nc1ccc2nc(CN3CCC(CO)(CCc4ccccc4)CC3)ccc2c1 | – | active: 18.4 µM |
| O=C1C2C3C=CC(C3=C3CCCCC3)C2C(=O)N1c1ccccc1 (stereo not drawn) | – | inconclusive: 2.06 µM [activator, partial curve, poor fit] |
| CCc1cc(Cl)c(OC)c(C(=O)NC[C@@H]2CCCN2CC)c1O | – | inconclusive: 4.6 nM [activator, full curve, poor fit] and inconclusive: 29.1 µM [activator, partial curve, poor fit] |
| COc1c(O)ccc(/C=N\NC(=O)c2ccc3c(c2)OCO3)c1[N+](=O)[O-] | inactive: -5.69% | – |
| Cn1ncc2c(NCCc3ccccc3)nc(Cl)nc21 | inactive: 10.2% | – |
| CCN1CCN(c2cc(C)c3cc(NC(=O)CCC(=O)N4CCN(c5ccccc5)CC4)ccc3n2)CC1 | – | inconclusive: 29.1 µM [activator, single point] |
| O=C(Nc1ccc(Cl)cc1C(=O)NCC1CCCO1)c1ccc(Cl)cc1Cl (stereo not drawn) | – | inconclusive: 4.11 µM [activator, full curve, poor fit] |
| COc1ccc(S(=O)(=O)N2CCC(C(=O)Nc3cccc(C(C)=O)c3)CC2)cc1C | inactive: 23.3% | – |
| CC(=O)c1cccc(NC(=O)c2c(-c3c(F)cccc3Cl)noc2C)c1 | – | inconclusive: 16.4 µM [activator, single point] |
| COc1cc(OC)cc(-c2cc3cc4c(cc3cn2)OCO4)c1 | – | inconclusive: 0.731 µM [activator, full curve, poor fit] |
| O=C(NCCC1=CCCCC1)C1CCC(=O)N(Cc2ccc(Cl)cc2)C1 (stereo not drawn) | inactive: 19.7% | – |
| CC(NC(=O)/C(C#N)=C1\N=C(NC(=O)c2ccco2)c2ccccc21)c1ccccc1 (stereo not drawn) | inactive: 9.41% | – |
| O=C(CNC(=O)c1ccncc1)N/N=C/c1ccccc1[N+](=O)[O-] | inactive: -9.82% | – |
| Cc1nc(NCC(c2ccccc2)N(C)C)c2c(C)c(C)sc2n1 (stereo not drawn) | – | inconclusive: 6.51 µM [activator, partial curve, poor fit] |
| COc1ccccc1Nc1nnc(SCc2cc(=O)n3cc(C)ccc3n2)s1 | – | inconclusive: 29.1 µM [activator, single point] |
| CCc1nn2cc(C(=O)c3cc(Cl)ccc3O)cnc2c1-c1ccc(F)cc1 | – | inconclusive: 6.51 µM [activator, full curve, poor fit] |
| COc1ccc(CNC(=O)C2CCCN2CCc2ccccc2)cc1OC (stereo not drawn) | – | inconclusive: 16.4 µM [activator, single point] |
| Cc1cc(C)n(-c2nnc(N3CCN(c4ccccc4)CC3)nn2)n1 | inactive: 1.27% | – |
| O=c1c2ccccc2nc(-c2ccco2)n1-c1nc2ccccc2s1 | – | inconclusive: 29.1 µM [activator, single point] |

| SMILES | activity, positive = re-replication | Potency |
| --- | --- | --- |
| Clc1ccc2c(NCc3ccco3)ncnc2c1 | inactive: -1.08% | – |
| Cc1ccc(N(Cc2ccc(C(=O)NCC3CCCO3)cc2)S(C)(=O)=O)cc1C (stereo not drawn) | – | inconclusive: 29.1 µM [activator, single point] |
| CC(C=Cc1ccccc1)=NNS(=O)(=O)c1ccc([N+](=O)[O-])cc1 | – | inconclusive: 25.9 µM [activator, partial curve, poor fit] |
| COc1cccc(-c2cc(C(=O)Nc3ccc([N+](=O)[O-])cn3)c3ccccc3n2)c1 | inactive: -0.776% | – |
| O=C(CNC(=O)c1ccco1)N=Nc1c(O)n(CCc2ccccc2)c2ccccc12 | – | inconclusive: 0.517 µM [activator, full curve, poor fit] |
| COc1ccc(OC)c(/C=C/C(=O)N2CCN(S(=O)(=O)c3cc(C)ccc3C)CC2)c1 | – | inconclusive: 29.1 µM [activator, single point] |
| CCCCn1c(O)c(N=NC(=O)c2ccco2)c2ccccc21 | – | inconclusive: 18.4 µM [activator, partial curve] |
| CC(=O)C1=C(O)C(CSCc2ccccc2)N(C)C1=O (stereo not drawn) | inactive: 5.25% | – |
| O=C(Nc1nccs1)C1CCN(S(=O)(=O)c2c(Cl)cccc2Cl)CC1 | – | inconclusive: 18.4 µM [activator, partial curve, poor fit] |
| COc1ccc(CNC(=O)C(C)OC(=O)CO/N=C(\C)c2ccc3c(c2)OCO3)cc1 (stereo not drawn) | – | inconclusive: 23.1 µM [activator, partial curve, poor fit] |
| Cc1c(CCC(=O)NCCCn2ccnc2)c(=O)oc2c(C)c3occ(C(C)(C)C)c3cc12 | – | inconclusive: 32.6 µM [activator, partial curve, poor fit] |
| COC(=O)Oc1ccc(/C=N/NC(=O)CN(c2ccccc2Br)S(C)(=O)=O)cc1OC | inactive: -0.464% | – |
| Cc1c(C(=O)OC(C)C)sc(N)c1C(=O)OC(C)C | – | inconclusive: 29.1 µM [activator, single point] |
| Cn1c(=O)c(=O)n(C)c2cc(S(=O)(=O)NCc3ccc(Cl)cc3)ccc21 | – | inconclusive: 0.231 µM [activator, full curve, poor fit] |
| O=C(Nc1nc(-c2ccccc2)cs1)C1CCCN(S(=O)(=O)c2cccc([N+](=O)[O-])c2)C1 (stereo not drawn) | inactive: 8.24% | – |
| CN1C(=O)/C(=C/c2cccc([N+](=O)[O-])c2)C(=O)N1c1ccccc1 | – | inconclusive: 23.1 µM [activator, single point] |
| O=C(/C=C/c1c(F)cccc1Cl)c1ccc(O)cc1 | – | active: 3.26 µM |
| O=C(Nc1ccc(Oc2ccccc2)nc1)C1CCN(Cc2ccccc2)CC1 | – | inconclusive: 23.1 µM [activator, single point] |
| CCN(CC)CCCN(C(=O)c1ccc(OC)cc1)c1nc(-c2ccc(OC)cc2)cs1 | – | inconclusive: 13 µM [activator, partial curve] |
| CCCN(CCC)C1CC(=O)N(Cc2ccccc2)C1=O (stereo not drawn) | – | inconclusive: 23.1 µM [activator, single point] |
| Cc1ccc(Cn2ncc3c(N4CCCC4)ncnc32)cc1 | – | inconclusive: 16.4 µM [activator, partial curve, poor fit] |
